Laboratory results taken from PubChem BioAssay (Tox21).
Inconclusive results, whose numbers are uncertain, are shown with a selection of clear calls. Where a call stands in place of a potency, no number is given. For some assays here: Potencies beside an inconclusive call are fits to weak or partial responses and may not hold up. Where a structure was tested more than once in an assay, its records may differ in their call. Calls of active or inactive are those of the source. Unless noted, the call rests on the fitted dose curve; in most records, active means well fitted curve in the direction sought with a large enough effect in the repeat runs; inconclusive means weak or mixed curves; inactive means no such curve, though single readings can be large; an effect the other way counts as inactive or inconclusive.

Legend:
[1] = qHTS assay for small molecule agonists of the p53 signaling pathway (AID 651631; calls by dose curve; further: nearly all actives have a fitted effect of over 15% in size; further: potency means the concentration at half of the fitted maximal effect); conditions: HCT-116 p53RE-bla reporter, beta-lactamase FRET ratio, 16 h; activation: at 73.3 µM (top of the series) unless noted
How it was run: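 Beta-lactamase reporter activity under p53 response elements was quantified in HCT-116 cells by FRET fluorescence, following 16 h incubation with test compounds at 37 °C and 2 h substrate development at room temperature.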

[2] = qHTS assay to identify small molecule antagonists of the retinoic acid receptor (RAR) signaling pathway (AID 1159552; further: nearly all actives have a fitted effect of over 50% in size; further: potency means the concentration at half of the fitted maximal effect)
How it was run: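 Test chemicals and DMSO controls were pin-transferred onto C3RL4 cells a day after seeding; retinol (1 uM final) followed at once. Luminescent reporter output was quantified after 6 hr of co-incubation and 30 min with detection reagent.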

[3] = molecular target: Estrogen receptor beta (Homo sapiens) (UniProt Q92731); experiment: qHTS assay to identify small molecule antagonists of the estrogen receptor beta (ER-beta) signaling pathway (AID 1259378; active means well fitted inhibition curve with a large enough effect in the signal ratio in the repeat runs, not every such curve was filed as active; inconclusive means weak or mixed curves, or effect the other way; inactive means no such curve, though single readings can be large or run the other way; the % refers to the signal ratio); conditions: ER-beta-UAS-bla HEK293T, beta-lactamase FRET ratio, 16 h; activity, negative = inhibition: at 92.4 µM (top of the series) unless noted
How it was run: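 Antagonist mode: compounds added to beta-lactamase reporter HEK293T ER-beta-UAS cells stimulated with E2 (1nM final), 16 hr at 37C. LiveBLAzer B/G FRET substrate, 2 hours room temperature, fluorescence read-out.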

[4] = molecular target: Glucocorticoid receptor (Homo sapiens) (UniProt P04150); experiment: qHTS assay to identify small molecule antagonists of the glucocorticoid receptor (GR) signaling pathway (AID 720692; active means well fitted inhibition curve with a large enough effect in the signal ratio in the repeat runs, not every such curve was filed as active; inconclusive means weak or mixed curves, or effect the other way; inactive means no such curve, though single readings can be large or run the other way; the % refers to the signal ratio; further: potency means the concentration at half of the fitted maximal effect); conditions: GR-bla HeLa, beta-lactamase FRET ratio, dexamethasone-stimulated, 18 h; activity change, negative = inhibition: at 58.5 µM (top of the series) unless noted
How it was run: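 Fluorescence from cleaved LiveBLAzer B/G FRET substrate reports GRE-driven beta-lactamase in HeLa cells; compounds are tested against 5 nM dexamethasone (final) over 18 h at 37 C, substrate incubation 2 h at room temperature.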

[5] = qHTS assay for identifying genotoxic compounds that show differential cytotoxicity against isogenic chicken DT40 cell lines with known DNA damage response pathways - wild type cell line (AID 743012); conditions: DT40 wild type chicken cells viability, CellTiter-Glo, 40 h; activity change, negative = cytotoxicity: at 68.4 µM (top of the series) unless noted; further: nearly all actives have a fitted effect of over 60% in size
How it was run: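 Quantitative HTS on parental DT40 cells: 40 h compound treatment at 37 C/5% CO2, with viability then determined by CellTiter-Glo luminescence. Values serve as the DNA repair-proficient reference for differential cytotoxicity.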

[6] = qHTS assay to identify small molecule antagonists of the thyroid receptor (TR) signaling pathway - cell viability counter screen (AID 743064); conditions: GH3.TRE-Luc viability, CellTiter-Fluor, 24 h; activity change, negative = cytotoxic: at 70.3 µM (top of the series) unless noted; further: nearly all actives have a fitted effect of over 50% in size; further: potency means the concentration at half of the fitted maximal effect
How it was run: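 CellTiter-Fluor readout, 30 min at 37 °C/5% CO2, following 23.5 h incubation of GH3.TRE-Luc cells with test compound and 1 nM T3 (final).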

[7] = molecular target: Peroxisome proliferator-activated receptor gamma (Homo sapiens) (UniProt P37231); experiment: qHTS assay to identify small molecule antagonists of the peroxisome proliferator-activated receptor gamma (PPARg) signaling pathway (AID 743191; calls by dose curve; further: nearly all actives have a fitted effect of over 30% in size; further: potency means the concentration at half of the fitted maximal effect); conditions: HEK293H PPARg-UAS-bla, beta-lactamase ratio, antagonist, 17 h; ratio activity, negative = inhibition: at 62.6 µM (top of the series) unless noted
How it was run: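 Beta-lactamase reporter under UAS control in HEK293H PPARg-bla cells; compound treatment 17 h at 37C. Read-out: fluorescence intensity after 1 h room-temperature incubation with LiveBLAzer B/G FRET substrate.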

[8] = qHTS assay for small molecule agonists of the antioxidant response element (ARE) signaling pathway (AID 743202; active means well fitted activation curve with a large enough effect in the signal ratio in the repeat runs, not every such curve was filed as active; inconclusive means weak or mixed curves, or effect the other way; inactive means no such curve, though single readings can be large or run the other way; the % refers to the signal ratio); conditions: HepG2 ARE-bla reporter, beta-lactamase FRET, 16 h; activation: at 73.3 µM (top of the series) unless noted
How it was run: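 An ARE-responsive beta-lactamase gene stably integrated in HepG2 cells serves as reporter. After 5 h plating and 16 h compound incubation at 37 C, fluorescence of the B/G FRET substrate was measured.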

[9] = molecular target: Cytochrome P450 2C9 (Homo sapiens) (UniProt P11712); experiment: Cytochrome P450 Family 2 Subfamily C Member 9 (CYP2C9) small molecule antagonists: luciferase reporter qHTS assay (AID 1671198); further: nearly all actives have a fitted effect of over 50% in size; further: potency means the concentration at half of the fitted maximal effect
How it was run: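 Enzyme-substrate mix preincubated with compound 10 min at room temperature; reaction started with NADPH regeneration solution, 1 h 37C. Luminescent luciferin product read after 20 min detection reagent.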

[10] = molecular target: Cytochrome P450 2C19 (Homo sapiens) (UniProt P33261); experiment: Cytochrome P450 Family 2 Subfamily C Member 19 (CYP2C19) small molecule antagonists: luciferase reporter qHTS assay (AID 1671197); further: potency means the concentration at half of the fitted maximal effect; nearly all actives have a fitted effect of over 65% in size
How it was run: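 CYP2C19 P450-Glo, 1536-well qHTS. Cpd + enzyme/proluciferin substrate 10 min RT; + NADPH regen, 37C 1 h; stop with luciferin detection reagent, 20 min RT, luminescence (RLU). Pos ctrl ketoconazole.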

[11] = qHTS assay for small molecule disruptors of the mitochondrial membrane potential (AID 720635); conditions: HepG2 mitochondrial membrane potential, Mito-MPS dye ratio; ratio activity, negative = MMP loss: at 83.2 µM (top of the series) unless noted; further: potency means the concentration at half of the fitted maximal effect
How it was run: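 Mitochondrial membrane potential tracked with Mito-MPS dye, red aggregates (ex 540/em 590 nm) against green monomers (ex 490/em 535 nm). Compound treatment 1 hr at 37C, dye 30 min in HepG2.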

[12] = qHTS assay to identify small molecule agonists of the retinoic acid receptor (RAR) signaling pathway (AID 1159553); conditions: C3RL4 RARE luciferase reporter, agonist, 6 h; activation: at 73.3 µM (top of the series) unless noted
How it was run: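 Cell line C3RL4, RARE luciferase reporter. Treatment: compounds in DMSO, 6 hr, 37 C, 5% CO2, after overnight plating. Detection: luminescence, 30 min RT after reagent.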

[13] = molecular target: Cytochrome P450 1A2 (Homo sapiens) (UniProt P05177); experiment: Cytochrome P450 Family 1 Subfamily A Member 2 (CYP1A2) small molecule antagonists: luciferase reporter qHTS assay (AID 1671199); further: nearly all actives have a fitted effect of over 50% in size; further: potency means the concentration at half of the fitted maximal effect
How it was run: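 Signal from luciferin formed by CYP1A2 from a proluciferin substrate is read as luminescence, expressed in relative luminescence units. Compounds sit with enzyme 10 min, NADPH-driven reaction runs 1 h, all at room temperature.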

[14] = qHTS assay for identifying genotoxic compounds that show differential cytotoxicity against isogenic chicken DT40 cell lines with known DNA damage response pathways - Rev3 mutant cell line (AID 743014); conditions: chicken DT40 Rev3-/- viability, CellTiter-Glo, 40 h; activity, negative = cytotoxicity: at 68.4 µM (top of the series) unless noted; further: nearly all actives have a fitted effect of over 55% in size; further: potency means the concentration at half of the fitted maximal effect
[15] = molecular target: Estrogen receptor (Homo sapiens) (UniProt P03372); experiment: qHTS assay to identify small molecule agonists of the estrogen receptor alpha (ER-alpha) signaling pathway using the BG1 cell line (AID 743079); conditions: BG1Luc4E2 cells, ERE-luciferase agonist, 22 h; activation: at 70.3 µM (top of the series) unless noted; further: potency means the concentration at half of the fitted maximal effect; nearly all actives have a fitted effect of over 20% in size
[16] = qHTS assay to identify small molecule antagonists of the sonic hedgehog signaling (Shh) pathway (AID 1259369; calls by dose curve; further: nearly all actives have a fitted effect of over 45% in size)
How it was run: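 Screening used 3T3Gli1-Luc cells at 2,000 per well, compounds delivered in DMSO, and conditioned medium as agonist stimulus; plates incubated 24hr at 37 C and 5% CO2 before a 30min luciferase step.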

[17] = qHTS assay to identify small molecule agonists of the progesterone receptor (PR) signaling pathway - cell viability counter screen (AID 1346799; calls by dose curve; further: nearly all actives have a fitted effect of over 45% in size)
How it was run: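 Multiplexed viability read: CellTiter-Glo luminescence, 30 min RT, following LiveBLAzer FRET measurement on PR-UAS-bla HEK293T cells exposed to compounds 16 hr.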

[18] = molecular target: Cytochrome P450 2D6 (Homo sapiens) (UniProt P10635); experiment: Cytochrome P450 Family 2 Subfamily D Member 6 (CYP2D6) small molecule antagonists: luciferase reporter qHTS assay (AID 1671196)
How it was run: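 Inhibition of CYP2D6 was gauged by loss of luminescence, since light produced tracks the luciferin generated from a proluciferin substrate. A 10 min room-temperature preincubation preceded 1 h NADPH-supported turnover.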
Tags describe the fitted curve by direction and shape or compound fluorescence and quenching.

Chain of UniProt Q92731 (Q92731 whole entry, looked up): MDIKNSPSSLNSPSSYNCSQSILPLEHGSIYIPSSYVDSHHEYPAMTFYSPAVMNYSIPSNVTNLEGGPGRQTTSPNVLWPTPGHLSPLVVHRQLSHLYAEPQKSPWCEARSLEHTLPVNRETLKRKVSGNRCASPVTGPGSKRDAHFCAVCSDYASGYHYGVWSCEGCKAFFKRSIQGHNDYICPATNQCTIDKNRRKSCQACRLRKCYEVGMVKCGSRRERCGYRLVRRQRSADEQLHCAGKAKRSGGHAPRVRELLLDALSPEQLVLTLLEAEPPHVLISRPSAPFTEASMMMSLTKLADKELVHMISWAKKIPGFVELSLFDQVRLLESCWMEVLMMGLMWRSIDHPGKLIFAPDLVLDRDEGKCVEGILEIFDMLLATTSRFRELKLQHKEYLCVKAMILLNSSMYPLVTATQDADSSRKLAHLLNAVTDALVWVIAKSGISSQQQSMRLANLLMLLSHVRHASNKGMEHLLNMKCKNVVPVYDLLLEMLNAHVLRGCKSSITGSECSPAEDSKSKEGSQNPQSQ
Chain of UniProt P05177 (P05177 whole entry, looked up): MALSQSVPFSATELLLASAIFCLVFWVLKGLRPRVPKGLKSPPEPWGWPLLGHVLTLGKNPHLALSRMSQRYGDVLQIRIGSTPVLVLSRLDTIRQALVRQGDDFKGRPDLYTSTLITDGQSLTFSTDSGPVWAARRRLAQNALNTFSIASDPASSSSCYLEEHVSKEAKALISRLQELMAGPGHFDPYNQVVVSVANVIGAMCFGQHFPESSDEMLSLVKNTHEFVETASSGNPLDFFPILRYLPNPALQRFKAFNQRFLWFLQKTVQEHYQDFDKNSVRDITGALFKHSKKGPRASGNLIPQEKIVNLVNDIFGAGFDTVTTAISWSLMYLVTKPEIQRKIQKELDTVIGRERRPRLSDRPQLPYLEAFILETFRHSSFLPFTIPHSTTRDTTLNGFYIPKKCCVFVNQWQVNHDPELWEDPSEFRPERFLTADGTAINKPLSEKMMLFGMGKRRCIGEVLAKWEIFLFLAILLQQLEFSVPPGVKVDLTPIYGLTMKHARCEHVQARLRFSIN
Chain of UniProt P04150 (P04150 whole entry, looked up): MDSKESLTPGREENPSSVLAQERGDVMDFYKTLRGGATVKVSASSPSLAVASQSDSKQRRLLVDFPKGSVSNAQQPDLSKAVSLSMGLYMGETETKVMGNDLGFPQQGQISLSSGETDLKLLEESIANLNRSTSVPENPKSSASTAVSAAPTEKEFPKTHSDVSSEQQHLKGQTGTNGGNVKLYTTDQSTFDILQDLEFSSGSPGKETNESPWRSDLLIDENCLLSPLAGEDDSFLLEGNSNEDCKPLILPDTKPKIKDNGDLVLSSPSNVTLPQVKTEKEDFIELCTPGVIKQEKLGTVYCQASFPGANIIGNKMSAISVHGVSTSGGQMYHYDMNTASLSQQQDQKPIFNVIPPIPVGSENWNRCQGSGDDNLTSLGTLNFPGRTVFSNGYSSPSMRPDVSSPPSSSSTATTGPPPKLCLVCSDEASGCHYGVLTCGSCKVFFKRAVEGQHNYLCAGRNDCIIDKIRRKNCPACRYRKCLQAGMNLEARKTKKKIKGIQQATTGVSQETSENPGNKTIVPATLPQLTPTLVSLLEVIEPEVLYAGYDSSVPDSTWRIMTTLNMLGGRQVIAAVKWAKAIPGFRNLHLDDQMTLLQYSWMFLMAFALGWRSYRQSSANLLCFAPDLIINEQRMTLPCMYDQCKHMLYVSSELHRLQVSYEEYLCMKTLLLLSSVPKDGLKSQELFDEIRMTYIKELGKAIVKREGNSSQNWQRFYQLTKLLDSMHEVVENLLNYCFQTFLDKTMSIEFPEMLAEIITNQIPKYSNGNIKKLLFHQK
Chain of UniProt P37231 (P37231 whole entry, looked up): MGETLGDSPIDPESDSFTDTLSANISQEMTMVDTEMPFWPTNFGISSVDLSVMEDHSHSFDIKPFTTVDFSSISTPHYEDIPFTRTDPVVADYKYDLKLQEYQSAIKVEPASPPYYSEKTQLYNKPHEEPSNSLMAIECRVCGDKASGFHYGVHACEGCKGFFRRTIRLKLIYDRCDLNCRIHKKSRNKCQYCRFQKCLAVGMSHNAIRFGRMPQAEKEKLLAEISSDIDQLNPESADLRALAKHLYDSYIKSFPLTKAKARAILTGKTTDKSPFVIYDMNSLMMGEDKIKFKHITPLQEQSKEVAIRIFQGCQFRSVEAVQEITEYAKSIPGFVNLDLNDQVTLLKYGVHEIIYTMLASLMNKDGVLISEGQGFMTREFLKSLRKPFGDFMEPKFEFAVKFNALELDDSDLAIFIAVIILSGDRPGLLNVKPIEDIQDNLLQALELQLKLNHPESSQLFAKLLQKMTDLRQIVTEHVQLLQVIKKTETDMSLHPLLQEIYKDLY
Chain of UniProt P11712 (P11712 whole entry, looked up): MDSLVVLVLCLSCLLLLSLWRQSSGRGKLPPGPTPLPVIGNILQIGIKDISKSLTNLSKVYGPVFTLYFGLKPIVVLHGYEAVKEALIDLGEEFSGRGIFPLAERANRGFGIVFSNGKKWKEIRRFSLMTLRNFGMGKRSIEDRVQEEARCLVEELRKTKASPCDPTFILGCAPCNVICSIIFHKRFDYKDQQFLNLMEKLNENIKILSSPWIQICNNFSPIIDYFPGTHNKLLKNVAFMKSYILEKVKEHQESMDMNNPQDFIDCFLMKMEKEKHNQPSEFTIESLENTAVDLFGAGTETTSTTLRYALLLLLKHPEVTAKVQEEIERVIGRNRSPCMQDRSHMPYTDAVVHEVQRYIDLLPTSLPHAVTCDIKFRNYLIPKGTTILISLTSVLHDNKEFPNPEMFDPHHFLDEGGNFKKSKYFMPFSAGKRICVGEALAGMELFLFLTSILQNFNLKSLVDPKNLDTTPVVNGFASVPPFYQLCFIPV
Chain of UniProt P33261 (P33261 whole entry, looked up): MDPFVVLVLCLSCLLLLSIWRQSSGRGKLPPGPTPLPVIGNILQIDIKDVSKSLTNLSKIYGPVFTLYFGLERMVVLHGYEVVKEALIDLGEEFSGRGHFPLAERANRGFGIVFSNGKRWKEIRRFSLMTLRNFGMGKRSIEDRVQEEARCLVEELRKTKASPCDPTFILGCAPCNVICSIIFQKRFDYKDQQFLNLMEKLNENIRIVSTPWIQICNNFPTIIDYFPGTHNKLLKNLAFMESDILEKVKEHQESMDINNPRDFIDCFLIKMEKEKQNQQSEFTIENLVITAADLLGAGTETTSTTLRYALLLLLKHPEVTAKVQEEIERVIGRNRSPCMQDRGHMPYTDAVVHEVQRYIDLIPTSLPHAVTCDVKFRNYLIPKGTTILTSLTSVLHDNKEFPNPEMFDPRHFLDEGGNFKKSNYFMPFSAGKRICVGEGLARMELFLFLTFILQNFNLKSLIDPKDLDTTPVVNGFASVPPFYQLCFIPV
Chain of UniProt P03372 (P03372 whole entry, looked up): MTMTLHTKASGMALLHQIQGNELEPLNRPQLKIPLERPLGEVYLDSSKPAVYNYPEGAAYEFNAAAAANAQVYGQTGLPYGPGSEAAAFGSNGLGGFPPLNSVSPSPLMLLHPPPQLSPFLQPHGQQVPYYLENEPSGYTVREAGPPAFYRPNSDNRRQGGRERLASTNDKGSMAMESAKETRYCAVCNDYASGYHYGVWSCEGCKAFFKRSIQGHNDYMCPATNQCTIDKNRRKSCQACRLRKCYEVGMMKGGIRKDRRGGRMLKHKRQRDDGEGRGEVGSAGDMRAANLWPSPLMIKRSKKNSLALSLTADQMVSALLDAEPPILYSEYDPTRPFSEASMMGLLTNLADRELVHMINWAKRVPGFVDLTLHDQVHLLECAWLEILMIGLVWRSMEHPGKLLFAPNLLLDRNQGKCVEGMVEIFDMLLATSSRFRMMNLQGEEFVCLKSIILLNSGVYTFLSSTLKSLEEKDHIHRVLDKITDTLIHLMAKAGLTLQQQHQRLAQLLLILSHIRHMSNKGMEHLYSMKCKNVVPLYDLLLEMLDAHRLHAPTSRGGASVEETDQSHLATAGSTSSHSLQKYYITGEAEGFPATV
Chain of UniProt P10635 (P10635 whole entry, looked up): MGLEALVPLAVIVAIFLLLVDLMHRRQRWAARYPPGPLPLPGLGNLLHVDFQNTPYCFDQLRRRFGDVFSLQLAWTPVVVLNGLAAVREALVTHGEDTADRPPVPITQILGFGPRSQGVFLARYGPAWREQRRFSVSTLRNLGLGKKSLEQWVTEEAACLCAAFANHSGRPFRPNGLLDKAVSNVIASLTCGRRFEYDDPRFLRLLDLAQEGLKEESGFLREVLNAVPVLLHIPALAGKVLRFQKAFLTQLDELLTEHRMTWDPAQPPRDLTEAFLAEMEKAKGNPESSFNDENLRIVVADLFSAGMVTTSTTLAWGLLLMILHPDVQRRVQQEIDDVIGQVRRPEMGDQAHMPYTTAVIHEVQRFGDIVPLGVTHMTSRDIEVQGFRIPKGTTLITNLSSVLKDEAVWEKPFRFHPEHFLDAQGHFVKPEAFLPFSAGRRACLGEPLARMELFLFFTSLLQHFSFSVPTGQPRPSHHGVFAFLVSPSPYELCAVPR

With `CCC(C)(CN(C)C)OC(=O)c1ccccc1` (configuration not stated) the Potency [1] was “inactive”, the Potency [2] was “inactive” and the Potency [3] was “inactive”.

In the case of `CN(C)CCCO[C@@H]1[C@H]2OC(C)(C)O[C@H]2O[C@@H]1C(O)CO` (some centres not stated), the Potency [4] is reported as “inactive”, the Potency [5] is reported as “inactive” and the Potency [6] is reported as inconclusive: 29.8 µM [rising, partial curve, poor fit]. The Potency [7] was “inactive”, the Potency [8] was “inactive” and the Potency [2] was “inactive”. For the same compound, the Potency [9] was “inactive”.

With `C[N+](C)(C)CC(O)CCl` (configuration not stated) the Potency [6] was “inactive”, the Potency [7] was “inactive” and the Potency [2] was “inactive”. The Potency [10] was inconclusive: 90.3 µM [inhibitor, single point].

In the case of `CCN(CC)CCOCCOC(=O)C1(c2ccccc2)CCCC1`, the Potency [1] is reported as “inactive”, the Potency [11] is reported as inconclusive: 29.8 µM [activator, partial curve] and the activity change, negative = inhibition [4] is reported as inconclusive: -2.31%. The ratio activity, negative = inhibition [7] was inconclusive: 0.128%, the Potency [12] was “inactive” and the Potency [13] was “inactive”.

In the case of `COc1cc(-c2ccc(=O)[nH]n2)ccc1OC(F)F`, the Potency [1] is reported as “inactive”, the Potency [11] is reported as “inactive” and the Potency [4] is reported as inconclusive: 0.301 µM [inhibitor, full curve]. For the same compound, the Potency [14] was inconclusive: 33.5 µM [rising, partial curve, poor fit], the Potency [15] was inconclusive: 26.6 µM [inhibitor, partial curve] and the ratio activity, negative = inhibition [7] was inconclusive: 11.8%. For the same compound, the Potency [2] was inconclusive: 3.35 µM [inhibitor, full curve, poor fit], the Potency [16] was “inactive” and the Potency [10] was inconclusive: 11 µM [inhibitor, partial curve, poor fit]. For the same compound, the Potency [13] was inconclusive: 10.2 µM [inhibitor, partial curve, poor fit].

In the case of `CC(=O)OCC(=O)Nc1cc(C#N)cc(NC(=O)COC(C)=O)c1Cl`, the Potency [1] is reported as “inactive”, the Potency [14] is reported as “inactive” and the ratio activity, negative = inhibition [7] is reported as inconclusive: -8.61%. The Potency [2] was “inactive” and the Potency [17] was “inactive”.

In the case of `CCOC(=O)n1ccn(C)c1=S`, the Potency [1] is reported as inconclusive: 10.1 µM [rising, partial curve, poor fit], the Potency [11] is reported as inconclusive: 0.611 µM [fluorescent, single point] and the Potency [14] is reported as inconclusive: 38.6 µM [cytotoxic, partial curve]. The activity, negative = cytotoxicity [14] was inconclusive: -50.7% [at 31.4 µM], the Potency [7] was inconclusive: 24.5 µM [activator] and inactive and the Potency [8] was “inactive”. For the same compound, the Potency [2] was inconclusive: 26.6 µM [inhibitor, partial curve], the Potency [3] was “inactive” and the Potency [17] was “inactive”. The Potency [18] was inconclusive: 43.6 µM [inhibitor, single point], the Potency [9] was inconclusive: 71 µM [inhibitor, partial curve, poor fit] and inactive and the Potency [13] was active: 39.9 µM and inactive.
